# According to PubChem BioAssay AID602310 (National Center for Advancing Translational Sciences (NCATS), 2012):
# Hit rate of the full screen: of about 410,000 compounds, about 310 (0.076%) were called active. This list was built around the results that the source calls inconclusive (neither active nor inactive); the mix of calls is not that of the screen. The call rests on the fitted dose curve; in most records, active means well fitted curve in the direction sought with a large enough effect; inconclusive means small, poorly fitted or top-dose-only effect; inactive means flat fitted curve, though single readings scatter. Potencies beside an inconclusive call are fits to weak or partial responses and may not hold up.
# Biological target: DNA dC->dU-editing enzyme APOBEC-3G (Homo sapiens) (UniProt Q9HC16)
# Experiment: qHTS for Inhibitors of Vif-A3G Interactions: qHTS; further: nearly all actives have a fitted effect of over 60% in size
# Details: HeLa A3G-eYFP + Vif (tagged APOBEC3G with the HIV-1 protein that degrades it), YFP fluorescence, overnight; series mostly up to 46.1 µM
# In short: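 HeLa cells stably expressing Vif and C-terminally eYFP-tagged A3G, seeded overnight at 37 deg C, then exposed to compound by pintool overnight at 37 deg C. Rise in yellow fluorescence (Ex 488/Em 500-530, Acumen) marks blocked Vif-driven A3G degradation.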
# Potency means the concentration at half of the fitted maximal effect; tags describe the fitted curve by direction and shape.
# Sequence of UniProt Q9HC16 (Q9HC16 whole entry, looked up): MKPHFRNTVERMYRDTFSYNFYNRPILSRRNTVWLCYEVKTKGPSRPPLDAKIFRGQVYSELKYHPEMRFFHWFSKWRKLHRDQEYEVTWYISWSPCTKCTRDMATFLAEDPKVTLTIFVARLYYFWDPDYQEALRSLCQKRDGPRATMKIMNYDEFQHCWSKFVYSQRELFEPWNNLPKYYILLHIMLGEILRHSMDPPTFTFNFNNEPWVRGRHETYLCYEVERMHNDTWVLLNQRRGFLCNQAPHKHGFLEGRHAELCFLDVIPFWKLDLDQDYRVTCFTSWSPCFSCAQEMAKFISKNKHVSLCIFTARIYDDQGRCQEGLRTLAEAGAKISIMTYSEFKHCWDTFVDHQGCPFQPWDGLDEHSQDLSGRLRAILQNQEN
row,Compound,Potency
1,Cc1ccc(-n2nnnc2CCl)cc1,"inconclusive: 35.5 µM [inhibitor, single point]"
2,O=C(Nc1ccc(-c2nc3ncccc3o2)cc1)c1ccc(Br)o1,"inconclusive: 22.4 µM [inhibitor, single point]"
3,COc1ccc(S(=O)(=O)Nc2cc3c(cc2C(C)=O)OCO3)cc1,"inconclusive: 7.08 µM [inhibitor, partial curve, poor fit]"
4,O=C(Cn1c(SCC(=O)Nc2ccc(F)cc2)nc2ccccc21)NCc1ccc(Cl)cc1,"inconclusive: 25.1 µM [inhibitor, single point]"
5,COc1ccccc1CNC(=O)COC(=O)/C=C/c1ccc2ccccc2n1,"inconclusive: 14.1 µM [inhibitor, single point]"
6,CCOc1ccc(-c2cc(C(=O)N/N=C/c3ccc(O)cc3)c3ccccc3n2)cc1,"inconclusive: 0.562 µM [inhibitor, full curve, poor fit]"
7,CCOC(=O)Cc1csc(NC(=O)c2sc3nc4c(C)cc(C)cc4cc3c2N)n1,"inconclusive: 17.8 µM [inhibitor, partial curve, poor fit]"
8,COc1ccc(F)cc1-c1cc(NC=O)c2ncc(-c3cccc(C(=O)N(C)C)c3)n2c1,"inconclusive: 20 µM [inhibitor, single point]"
9,Cn1c(SCc2ccccc2Cl)nc(=O)c2c1NC(=O)CC2c1cc(F)ccc1F (stereo unspecified),"inconclusive: 22.4 µM [inhibitor, single point]"
10,CCOC(=O)C1=CC[C@H]2c3c(c4ccc(OC)cc4n3C)C(=O)C1N2S(=O)(=O)c1ccc(C)cc1,"inconclusive: 8.91 µM [inhibitor, partial curve, poor fit]"
11,O=C(Cn1ncc(Cl)c(Cl)c1=O)Nc1ccc2c(c1)OCO2,"inconclusive: 20 µM [inhibitor, partial curve, poor fit]"
12,Cc1cc(C)c(C)c(S(=O)(=O)N2C(=S)NC(=O)C2C(C)C)c1C (stereo unspecified),inactive
13,C/C(=N\Nc1nc2ccccc2[nH]1)c1ccc(N2CCOCC2)cc1,inactive
14,COc1ccc(OC)c(NC(=O)c2c(NCc3ccc(N(C)C)cc3)sc3c2CCCC3)c1,inactive
15,COC(=O)[C@@]1(Cc2ccc(OC)cc2)[C@@H]2C(=CC(=O)[C@H]2CC(=O)C(=O)N2CCCC2)CN1C(=O)c1ccccc1,"inconclusive: 22.4 µM [inhibitor, single point]"
16,Nc1nonc1-c1nc2ccccc2n1CC(=O)Nc1cccc(Cl)c1Cl,"inconclusive: 3.16 µM [inhibitor, full curve]"
17,CCOC(=O)CS(=O)(=O)c1nc(-c2ccccc2)cc(C(F)(F)F)n1,"inconclusive: 8.91 µM [inhibitor, partial curve]"
18,CC(C)Oc1ccccc1C1CC(=O)Nc2cc3c(cc21)OCO3 (stereo unspecified),"inconclusive: 0.562 µM [inhibitor, partial curve, poor fit]"
19,COc1cc2ccc(=O)oc2c(O[C@@H]2O[C@H](CO)[C@@H](O)[C@H](O)[C@H]2O)c1O,inactive
20,CCCn1c(=O)c2ccccc2n2c(=S)[nH]nc12,inactive
21,C#CCN(C[C@@H]1[C@@H](OC(=O)NC2CC2)[C@@H](OC(=O)NC2CC2)Cn2c(=O)n(CCCCCC)c(=O)n21)S(=O)(=O)c1ccc(C)cc1,inactive
22,COc1ccc(C)cc1NC(=O)COC(=O)c1ccc2ccccc2n1,"inconclusive: 12.6 µM [inhibitor, partial curve, poor fit]"

row,Compound,Potency
1,CC[n+]1ccccc1/C=C/c1ccc(N(C)C)cc1,"inconclusive: 22.4 µM [inhibitor, single point]"
2,Cc1ccc(-c2nn3c(C)nnc3s2)cc1NCc1c(F)cccc1Cl,"inconclusive: 3.16 µM [inhibitor, full curve]"
3,CCOC(=O)C1(C(=O)OCC)COC(=O)C1CN1Cc2cc3ccccc3nc2C1 (stereo unspecified),"inconclusive: 25.1 µM [inhibitor, single point]"
4,Cc1csc(SC(C)C(=O)Nc2ccc(Cl)cn2)n1 (stereo unspecified),inactive
5,CCc1cccc2c(-c3csc(=NC)n3C)c[nH]c12,inactive
6,NNC(=O)c1sc(-c2ccc(Cl)cc2)cc1N,"inconclusive: 35.5 µM [inhibitor, single point]"
7,COc1cc(/C=N/Nc2nc(C)nc3c2cnn3-c2ccccc2)ccc1O,"inconclusive: 6.31 µM [inhibitor, full curve]"
8,CCN(CC)C1Oc2cc3c(cc2C(c2cc(OC)c(OC)c(OC)c2)C1C)OCO3 (stereo unspecified),"inconclusive: 0.562 µM [inhibitor, full curve, poor fit]"
9,c1ccc(C2=Nc3ccccc3NC(c3ccccc3)C2)cc1 (stereo unspecified),inactive
10,COc1cc(-c2cc(NC=O)c3ncc(-c4cccc(C(=O)N(C)C)c4)n3c2)cc(OC)c1OC,"inconclusive: 28.2 µM [inhibitor, single point]"
11,CCOC(=O)c1cnc2ccccc2c1Nc1cccc(C(=O)O)c1,inactive
12,CCOc1ccc(N/C=C/C(=O)c2ccc(OC)c(OC)c2)cc1,inactive
13,CCOC(=O)C1=CC[C@@H](c2ccncc2)N(S(=O)(=O)c2ccc(C)cc2)C1,"inconclusive: 7.94 µM [inhibitor, partial curve]"
14,COc1ccc(-n2nnnc2-c2cccc(OC)c2)cc1,"inconclusive: 1.12 µM [inhibitor, full curve]"
15,Cc1ccc(C)c(S(=O)(=O)Nc2ccc3scnc3c2)c1,"inconclusive: 3.16 µM [inhibitor, full curve, poor fit]"
16,COc1ccc2c(c1)C(C)=CC(C)(C)N2S(=O)(=O)c1ccc(NC(C)=O)cc1,"inconclusive: 0.562 µM [inhibitor, full curve, poor fit]"
17,C/C(=N\Nc1ncnc2sc(C)c(C)c12)c1ccccn1,"inconclusive: 35.5 µM [inhibitor, single point]"
18,COc1cccc(CN2C(=O)N(c3ccc(C)cc3)C(=O)C2CC(=O)Nc2cc(OC)cc(OC)c2)c1 (stereo unspecified),inactive
19,COc1cccc(-c2cnc3c(NC(C)=O)cc(-c4cc(OC)c(OC)c(OC)c4)cn23)c1,"inconclusive: 22.4 µM [inhibitor, single point]"
20,O=C(Nc1cccc(Cl)c1)N1CCN2C(=O)c3ccccc3C12c1ccccc1 (stereo unspecified),inactive
21,CCOc1ccccc1NC(=O)CCSc1nc2n[nH]c(C)c2c(=N)n1-c1ccccc1Cl,"inconclusive: 25.1 µM [inhibitor, single point]"
22,COc1ccc(CNC(=O)COc2ccc(C(=O)c3ccc(F)cc3)cc2)cc1,"inconclusive: 2.24 µM [inhibitor, full curve, poor fit]"

row,Compound,Potency
1,N#CC1=C(N)SC(N)=C(C#N)C1c1ccnc2ccccc12,"inconclusive: 5.62 µM [inhibitor, single point]"
2,COc1cccc(-c2cnc3c(NC(C)=O)cc(-c4cccc(C(=O)NCCO)c4)cn23)c1,"inconclusive: 31.6 µM [inhibitor, single point]"
3,O=C(/C=C/c1ccco1)Oc1cccc2cccnc12,"inconclusive: 12.6 µM [inhibitor, single point]"
4,Cc1nc(N2CCC(C)CC2)c2c(C)c(C(=O)Nc3ccc(C)c(F)c3)sc2n1,inactive
5,Cc1ccc(S(=O)(=O)C2(S(=O)(=O)c3ccc(C)cc3)CCCC2)cc1,"inconclusive: 3.55 µM [inhibitor, full curve]"
6,CN(C)c1ccc(C2=Cc3ccccc3C2)cc1,"inconclusive: 22.4 µM [inhibitor, single point]"
7,CCc1ccc(/C=N/NC(=O)c2cc(-c3ccncc3)nc3ccccc23)s1,"inconclusive: 1.58 µM [inhibitor, full curve, poor fit]"
8,CCCCNc1ccc2c3c(cccc13)C(=O)N(CCCC)C2=O,inactive
9,NNC(=O)/C(=C/c1cccs1)NC(=O)c1ccccc1Cl,"inconclusive: 35.5 µM [inhibitor, single point]"
10,CCCN1C=CC(=CC=C(C#N)C#N)C=C1,active: 12.6 µM
11,CCN(CC)S(=O)(=O)c1ccc(NC(=S)Nc2ccc(F)cc2)cc1,"inconclusive: 22.4 µM [inhibitor, partial curve, poor fit]"
12,O=C(N/N=C/c1ccccc1O)C(=O)N1CCCCCC1,inactive
13,COc1cc(C2C(C#N)=C(N)Oc3cc(O)ccc32)cc2c1OCO2 (stereo unspecified),"inconclusive: 11.2 µM [inhibitor, partial curve, poor fit]"
14,Cc1ccc(C)c(NS(=O)(=O)c2ccc3c(c2)n(C)c(=O)n3C)c1,inactive
15,Cc1ccc(S[C@@H](CCN2CC[C@H](C)CCC2=O)c2ccccc2)cc1,inactive
16,COc1cc(C(=O)Nc2nc(C)c(Cc3ccc4c(c3)OCO4)s2)cc(OC)c1OC,"inconclusive: 1.26 µM [inhibitor, partial curve, poor fit]"
17,COc1ccc(C(=O)c2ccc(Cl)cc2)c2ccccc12,"inconclusive: 10 µM [inhibitor, partial curve]"
18,CCOc1cc(C#N)c(NC(=O)c2cccnc2)cc1OCC,"inconclusive: 3.16 µM [inhibitor, full curve]"
19,Cc1nc(NC(=O)c2ccco2)sc1C(=O)Nc1ccc(Br)cc1,"inconclusive: 11.2 µM [inhibitor, partial curve]"
20,N=c1c(C(=O)NC2CCCCC2)cc2c(=O)n3ccccc3nc2n1Cc1cccnc1,inactive
21,O=C(CSc1cccc2cccnc12)N/N=C/c1cccnc1,"inconclusive: 35.5 µM [inhibitor, single point]"
22,COc1ccc(NC(=O)Cn2cnc3ccc(S(=O)(=O)N4CCC(C)CC4)cc3c2=O)cc1Cl,"inconclusive: 28.2 µM [inhibitor, single point]"
